Measured values taken from PMC5995542 (2018).

Tests used:
[1] = molecular target: RF2-Cy5 (release factor RF2, single-cysteine variant RF2(C273) labelled with Cy5) (E. coli K12, UniProt P07012 1-365, T246A, Cy5 (maleimide) on the single cysteine C273; methylated in vitro (residue not given)); assay: FRET; PostHC
[2] = molecular target: T1, RF3-Cy5 (release factor RF3, single-cysteine variant RF3(L233C) labelled with Cy5) (E. coli, UniProt P0A7I4, L233C, Cy5 on the single cysteine C233); assay: FRET; PostHC*, GDPNP, without RF1
[3] = molecular target: T1, RF3-Cy5 (release factor RF3, …); assay: FRET; PostHC, GDPNP, saturating RF1 (1 uM)
[4] = molecular target: RF2(GAQ)-Cy5 (catalytically impaired RF2(G251A), Cy5-labelled) (E. coli K12, UniProt P07012 1-365, T246A | G251A, Cy5 (maleimide) on the single cysteine; methylated in vitro (residue not given)); assay: FRET; PostHC* (peptide released by puromycin)

koff [1]: 0.8 s⁻¹ | koff [2]: 0.3 s⁻¹ | koff [3]: 2.5 s⁻¹ | koff [4]: 0.8 s⁻¹
B1: E. coli 70S ribosome termination complex labelled with Cy3 at protein L11 (PreHC, PostHC* or PostHC) (complex)
chain: not shown
modifications: Cy3 (position not given)
